{"source": "the RNAGym collection of RNA variant scans (doi:10.1073/pnas.2313332121)", "parents": {"B1": {"name": "TPR 5TU (parent)", "chain": "GGAUCUUCUCGAUCUAACAAAAAAGACAAAUCUGCCACAAAGCUUGAGAGCAUCUUCGGAUGCAGAGGCGGCAGCCUUCGGUGGCGCGAUAGCGCCAACGUUCUCAACUAUGACACGCAAAACGCGUGCUCCGUUGAAUGGAGUUUAUCAUG"}}, "note": "This sample is rich in variants without activity."}
{"variants_of": "B1", "assay": "polymerase ribozyme fitness, log enrichment relative to wild type (log ratio); higher = more active; in vitro selection for triplet polymerase activity", "outline": "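Input and output libraries were sequenced on Illumina after a single in vitro selection round, run in triplicate on PCR-built, transcribed mutant libraries of each subunit of a heterodimeric triplet polymerase ribozyme. Selection annealed libraries to a biotinylated primer, the partner subunit and triplets, incubated them frozen at −7 °C, then gel-excised extended constructs for streptavidin-bead capture and RT-PCR. Genotypes with ≥10 input reads and ≥1 read per output were kept. Fitness is the logarithm, taken in base 2, of genotype enrichment divided by wild-type enrichment, using inverse-variance-weighted replicate averages.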"}
{"variant": "A16G G58C C118U C131G U144G", "polymerase ribozyme fitness (log ratio)": "≤ -4.2"}
{"variant": "A16G G58U G68A C85U C87G G126A C132G", "polymerase ribozyme fitness (log ratio)": "≤ -4.2"}
{"variant": "A16G G74A C79U C93A C103A", "polymerase ribozyme fitness (log ratio)": "≤ -4.2"}
{"variant": "A16G G74A C79U G88A A91U G100A U104G U146G", "polymerase ribozyme fitness (log ratio)": "≤ -4.2"}
{"variant": "A16G G83U C87U C93G A142U", "polymerase ribozyme fitness (log ratio)": "≤ -4.2"}
{"variant": "A16G G94A G143C", "polymerase ribozyme fitness (log ratio)": -3.22}
{"variant": "A16G U31A G50C G80C C95U A122U", "polymerase ribozyme fitness (log ratio)": "≤ -4.2"}
{"variant": "A16G U31G A49U", "polymerase ribozyme fitness (log ratio)": "≤ -4.2"}
{"variant": "A16G U33G G81A C87G G100A", "polymerase ribozyme fitness (log ratio)": "≤ -4.2"}
{"variant": "A16G U44A A49C C99A U101C G140A", "polymerase ribozyme fitness (log ratio)": "≤ -4.2"}
{"variant": "A16G U44A C54U A106C G112A A115G C131U A138U", "polymerase ribozyme fitness (log ratio)": "≤ -4.2"}
{"variant": "A16G U53A U146G", "polymerase ribozyme fitness (log ratio)": -2.19}
{"variant": "A16G U53G C96U A119C G124C G133C G141C", "polymerase ribozyme fitness (log ratio)": "≤ -4.2"}
{"variant": "A16G U55A G83A G117U", "polymerase ribozyme fitness (log ratio)": -1.7}
{"variant": "A16G U78A C93G", "polymerase ribozyme fitness (log ratio)": "≤ -4.2"}
{"variant": "A16G U82A U145G", "polymerase ribozyme fitness (log ratio)": -1.4}
{"variant": "A16G U148C", "polymerase ribozyme fitness (log ratio)": -2.77}
{"variant": "A16U A17C C87G C99A A106G U139C U146C", "polymerase ribozyme fitness (log ratio)": "≤ -4.2"}
{"variant": "A16U A17U A26U C27G A49U C54A A66U C85A C116G", "polymerase ribozyme fitness (log ratio)": -3.74}
{"variant": "A16U A19C A23C C51U C93A U135C U151G", "polymerase ribozyme fitness (log ratio)": "≤ -4.2"}
{"variant": "A16U A19U A24C A47C G48C C57A G83A A107U", "polymerase ribozyme fitness (log ratio)": "≤ -4.2"}
{"variant": "A16U A19U A26C A37C G74C A89C G94A C108U A113G G136A", "polymerase ribozyme fitness (log ratio)": "≤ -4.2"}
{"variant": "A16U A21G C27U A89G A106C", "polymerase ribozyme fitness (log ratio)": "≤ -4.2"}
{"variant": "A16U A21U C35U U44A G59C C96G", "polymerase ribozyme fitness (log ratio)": "≤ -4.2"}
{"variant": "A16U A22C", "polymerase ribozyme fitness (log ratio)": -2.41}
{"variant": "A16U A22G C57A U135A", "polymerase ribozyme fitness (log ratio)": -3.06}
{"variant": "A16U A22U A52C C54G C93G G94U C96G C125G U148G", "polymerase ribozyme fitness (log ratio)": "≤ -4.2"}
{"variant": "A16U A22U A64U G94A G117A C132A U151G", "polymerase ribozyme fitness (log ratio)": "≤ -4.2"}
{"variant": "A16U A23G C27U A47G G74A G86A", "polymerase ribozyme fitness (log ratio)": "≤ -4.2"}
{"variant": "A16U A23U G50A C85G C125U G141C U145C A147G", "polymerase ribozyme fitness (log ratio)": "≤ -4.2"}
{"variant": "A16U A24G A26U G92U G94U U104G A106C C149U", "polymerase ribozyme fitness (log ratio)": "≤ -4.2"}
{"variant": "A16U A24U G94C C116U G141C", "polymerase ribozyme fitness (log ratio)": "≤ -4.2"}
{"variant": "A16U A26C A29U U55G A97C G140U", "polymerase ribozyme fitness (log ratio)": "≤ -4.2"}
{"variant": "A16U A26C U139G U144C", "polymerase ribozyme fitness (log ratio)": "≤ -4.2"}
{"variant": "A16U A26U C96U", "polymerase ribozyme fitness (log ratio)": "≤ -4.2"}
{"variant": "A16U A26U G88U A119G C132U", "polymerase ribozyme fitness (log ratio)": "≤ -4.2"}
{"variant": "A16U A28G A40U U56A U61A U145A", "polymerase ribozyme fitness (log ratio)": "≤ -4.2"}
{"variant": "A16U A28U A37C G42U U56A C95A U145A C149G", "polymerase ribozyme fitness (log ratio)": "≤ -4.2"}
{"variant": "A16U A28U G59A A110G C125G", "polymerase ribozyme fitness (log ratio)": "≤ -4.2"}
{"variant": "A16U A29U U77G C85G C116U C125A U134C", "polymerase ribozyme fitness (log ratio)": "≤ -4.2"}
{"variant": "A16U A30C U61A C96U G140U", "polymerase ribozyme fitness (log ratio)": "≤ -4.2"}
{"variant": "A16U A39U G84A G92U C103U C149G U151C", "polymerase ribozyme fitness (log ratio)": "≤ -4.2"}
{"variant": "A16U A40C A47C A97G C99U A119G C125A G133U U139A", "polymerase ribozyme fitness (log ratio)": "≤ -4.2"}
{"variant": "A16U A41C G117C U148G", "polymerase ribozyme fitness (log ratio)": "≤ -4.2"}
{"variant": "A16U A41G A73G C85A C95U C125U", "polymerase ribozyme fitness (log ratio)": "≤ -4.2"}
{"variant": "A16U A47C", "polymerase ribozyme fitness (log ratio)": -2.04}
{"variant": "A16U A120G", "polymerase ribozyme fitness (log ratio)": -2.64}
{"variant": "A16U C18G A37C U56A U130G G136A", "polymerase ribozyme fitness (log ratio)": "≤ -4.2"}
{"variant": "A16U C18G C75A G80A C87G U127C A150G U151C", "polymerase ribozyme fitness (log ratio)": "≤ -4.2"}
{"variant": "A16U C18U G42U U44G A120U G128U G143C", "polymerase ribozyme fitness (log ratio)": "≤ -4.2"}
{"variant": "A16U C27G A28U U31C G74U U82A", "polymerase ribozyme fitness (log ratio)": "≤ -4.2"}
{"variant": "A16U C27G A30U C35G G83A C103U", "polymerase ribozyme fitness (log ratio)": "≤ -4.2"}
{"variant": "A16U C27G G92A C105A C116U G124U G126A G141C", "polymerase ribozyme fitness (log ratio)": "≤ -4.2"}
{"variant": "A16U C32A C96U U102C A115U", "polymerase ribozyme fitness (log ratio)": "≤ -4.2"}
{"variant": "A16U C35A U45A C95G", "polymerase ribozyme fitness (log ratio)": "≤ -4.2"}
{"variant": "A16U C35U A40C C63U G92A G94A G124A", "polymerase ribozyme fitness (log ratio)": "≤ -4.2"}
{"variant": "A16U C35U G92U C116G", "polymerase ribozyme fitness (log ratio)": -3.21}
{"variant": "A16U C36A A37U A47C C79A G94A A110G", "polymerase ribozyme fitness (log ratio)": "≤ -4.2"}
{"variant": "A16U C36G C95A", "polymerase ribozyme fitness (log ratio)": "≤ -4.2"}
{"variant": "A16U C43G G84C", "polymerase ribozyme fitness (log ratio)": "≤ -4.2"}
{"variant": "A16U C43U C76A G94C G126U U151G", "polymerase ribozyme fitness (log ratio)": "≤ -4.2"}
{"variant": "A16U C57A C93A U151G", "polymerase ribozyme fitness (log ratio)": "≤ -4.2"}
{"variant": "A16U C57G C75G C76U G140C", "polymerase ribozyme fitness (log ratio)": "≤ -4.2"}
{"variant": "A16U C63G C87A A107U A142C G143A", "polymerase ribozyme fitness (log ratio)": "≤ -4.2"}
{"variant": "A16U C76A A91G C118U", "polymerase ribozyme fitness (log ratio)": "≤ -4.2"}
{"variant": "A16U C85U C99A G141C", "polymerase ribozyme fitness (log ratio)": "≤ -4.2"}
{"variant": "A16U C96U", "polymerase ribozyme fitness (log ratio)": -2.07}
{"variant": "A16U C96U A107U U145A U146C", "polymerase ribozyme fitness (log ratio)": "≤ -4.2"}
{"variant": "A16U C108U C114U U135A", "polymerase ribozyme fitness (log ratio)": "≤ -4.2"}
{"variant": "A16U G25C A30C G71A C85U C95A C114U", "polymerase ribozyme fitness (log ratio)": "≤ -4.2"}
{"variant": "A16U G25C C38U U55A A91G A107C C108U", "polymerase ribozyme fitness (log ratio)": "≤ -4.2"}
{"variant": "A16U G34A C76U U146G", "polymerase ribozyme fitness (log ratio)": "≤ -4.2"}
{"variant": "A16U G42A G86A C99U", "polymerase ribozyme fitness (log ratio)": "≤ -4.2"}
{"variant": "A16U G42A U53A C85U C96G A120C", "polymerase ribozyme fitness (log ratio)": "≤ -4.2"}
{"variant": "A16U G46C G83A A120G", "polymerase ribozyme fitness (log ratio)": "≤ -4.2"}
{"variant": "A16U G46U G59C C76G G84U C85U U102C A138U", "polymerase ribozyme fitness (log ratio)": "≤ -4.2"}
{"variant": "A16U G62U A64U G68C A91U G92C C116G G141C U151G", "polymerase ribozyme fitness (log ratio)": "≤ -4.2"}
{"variant": "A16U G65A A66G C85U C99U U101A A122U", "polymerase ribozyme fitness (log ratio)": "≤ -4.2"}
{"variant": "A16U G68U C79A G88A", "polymerase ribozyme fitness (log ratio)": "≤ -4.2"}
{"variant": "A16U G74U", "polymerase ribozyme fitness (log ratio)": "≤ -4.2"}
{"variant": "A16U G80C G92A A97U A119C U130G U151A", "polymerase ribozyme fitness (log ratio)": "≤ -4.2"}
{"variant": "A16U G83A A106G A107C C118U C123G C129G A150G", "polymerase ribozyme fitness (log ratio)": "≤ -4.2"}
{"variant": "A16U G84U C131U G136C", "polymerase ribozyme fitness (log ratio)": "≤ -4.2"}
{"variant": "A16U G92U", "polymerase ribozyme fitness (log ratio)": -2.29}
